Experimental data as given in PubChem BioAssay AID1224903 (Bradner/Qi Labs at DFCI, 2016).
The list shows a part of the results. Shown are side measurements of this screen, not its main read-out; they come without a call. The list favours compounds with an active or inconclusive main result.

What follows are compounds tested against Chromobox protein homolog 7 (Homo sapiens) (UniProt O95931) (assay: CBX7 chromodomain binding inhibitors, primary screen, biochemical, AlphaScreen (AID 1224903)). Conditions: AlphaScreen His6-CBX7 / biotin-H3K27me3 peptide binding; measured here: z-score of CBX7 signal; stronger effect = lower value.
Sequence of UniProt O95931 (O95931 whole entry, looked up): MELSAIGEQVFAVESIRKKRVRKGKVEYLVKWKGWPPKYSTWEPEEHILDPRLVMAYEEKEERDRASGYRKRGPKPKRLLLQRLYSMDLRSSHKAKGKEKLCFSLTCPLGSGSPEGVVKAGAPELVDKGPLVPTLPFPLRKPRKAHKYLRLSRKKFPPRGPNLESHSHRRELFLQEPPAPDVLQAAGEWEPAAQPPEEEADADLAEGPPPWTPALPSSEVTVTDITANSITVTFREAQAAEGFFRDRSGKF
`CC1N=C(c2ccccc2F)c2cc(Cl)ccc2N(CC(=O)Nc2ccc(N(C)C)cc2)C1=O` (centres undefined) showed a z-score of -13.2.
In the case of `COc1ccc2[nH]c(C)c(CCNCc3cccc(C(F)(F)F)c3)c2c1`, the z-score is reported as -0.795.
For `COc1ccc2[nH]c(C)c(CCNCc3nc[nH]c3C)c2c1`, the z-score was -2.02.
Compound `COc1ccc2[nH]c(C)c(CCNCc3ccc(C#N)cc3)c2c1` has a z-score of -0.74.
Compound `CNc1ccc(C)cc1C(=O)c1cccc(Br)c1` has a z-score of -12.3.
In the case of `COc1ccc2[nH]c(C)c(CCNCc3ccc(OC(F)(F)F)cc3)c2c1`, the z-score is reported as -10.6.
`Cc1ccccc1-n1nnnc1C1(NCCc2c(C)[nH]c3ccccc23)CCCCC1` was tested, and the z-score was -9.26.
`CCCCCC(C)C(C)c1cc(OC)c2c(c1)OC(C)(C)C1=C2CN(CC(N)=O)CC1` (centres undefined) gave a z-score of -1.72.
`COc1ccc(F)c(CNCCc2c(C)[nH]c3ccc(OC)cc23)c1` gave a z-score of -0.624.
`CN(C)c1ccc(C2SCC(=O)Nc3c2c(-c2ccccc2)nn3-c2ccccc2)cc1` (centres undefined) showed a z-score of -6.66.
Compound `COc1ccc(CCNCc2ccccn2)cc1OC` has a z-score of -12.3.
`CCOc1ccccc1CN(CCc1ccc2c(c1)OCO2)Cc1ccc(F)c(F)c1` gave a z-score of -4.15.
For `COc1ccc2[nH]c(C)c(CCNCc3ncc[nH]3)c2c1`, the z-score was -0.82.
In the case of `CCOC(=O)C1(c2ccccc2)CCN(CC(=O)Nc2cccc(Cl)c2)CC1`, the z-score is reported as -7.29.
